Not every entry of the source has a single result; some have several. This list holds those alone. There may be further records. Values given together are repeated measurements in other runs, samples, wells, individuals or studies. Signs of the kind (2×) give the number of equal values in this list.

The test system of this experiment is 186277-243-T-J2-PDC spheroids with HUVEC/MSC, viability. Briefly: Anticancer human tumor 186277-243-T-J2-PDC patient-derived colon adenocarcinoma cell line growth inhibition [CLK]. As to conditions: stronger effect = lower value. The text has this:
A high-throughput screen of multi-cell type tumor spheroids was designed to identify active combinations of […] and targeted small molecules. Complex spheroids include a stromal component modeled by human endothelial cells (HUVEC) and fibroblasts modeled by human mesenchymal stem cells (MSCs). The concentration ranges selected for each drug and investigational agent were based upon clinically achievable concentrations if the clinical Cmax of the agent was known.
Compounds. The drugs and investigational agents: cirtuvivint (SM08502; NSC835563), CC-671 (NSC850746), vemurafenib (NSC761431), tapotoclax (NSC804041), sotorasib (NSC818433), adagrasib (NSC831453), MRTX-1133 (NSC836407), BAY2416964 (NSC825713), copanlisib (NSC816437), inavolisib (NSC800729), abemaciclib (NSC768073), osimertinib (NSC779217), entinostat (NSC756642), eltanexor (KPT-8602, NSC794443), venetoclax (NSC766270), ceralasertib (NSC777638), bortezomib (NSC756655), olaparib (NSC753686), talazoparib (NSC767125), alisertib (NSC759677), peposertib (NSC802822), gemcitabine (NSC613327), 5-fluorouracil (NSC19893), SN-38 (NSC673596), oxaliplatin (NSC266046), paclitaxel (NSC125973), and doxorubicin (NSC123127), were obtained from the National Cancer Institute (NCI) Developmental Therapeutics Program Chemical Repository. The FDA-approved anticancer drug set is available from the Developmental Therapeutics Program at https://dtp.cancer.gov/organization/dscb/obtaining/available plates.htm. […] The stock solutions were prepared in dimethyl sulfoxide (DMSO, Sigma-Aldrich, St. Louis, MO, cat. D2650), except for the platinum complexes which were prepared in saline (Quality Biological, Gaithersburg, MD, cat. 114-055-101), at 800-fold the tested concentration and stored at -70 degrees C prior to their use. All drugs and investigational agents were tested over a range starting from a high concentration at or near the clinical Cmax and decreasing in half-log increments. If the clinical Cmax for an agent had not been determined, the highest concentration tested was 10 microM.
Cell Culture. All cells were maintained in an incubator at 37 degrees C and 5% CO2 with 95% humidity. The PDC lines were cultured according to standard operating procedures established by the NCI PDMR. Briefly, all PDCs were thawed and cultured in Matrigel-coated flasks prepared with a working solution of 1X Ham's F-12 nutrient mix, without supplementation (Invitrogen, Waltham, MA, cat. 11765054), 100 U/mL penicillin-streptomycin (Invitrogen, cat. 15140122), and 2.5% Matrigel (Corning Inc., Corning, NY, cat. 354248) for the first three passages. […]
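Also: compound exposure lasted seven days before readout.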

The term viability, T/C denotes the ratio of treated to control. For `CNC(=O)c1ccc(Nc2nc(OC3CCCC3)c3c(-c4ccc5nc(C)oc5c4)c[nH]c3n2)c(OC)c1`, the viability, T/C (compound alone 0.0316 µM) was 112, 98.5, 102, 113, 101 (2×), 98, 124, 109, 106 (2×), 108%.
On to `C=C(F)C(=O)N1CCN(c2nc(OCC3CCCN3C)nc3c2CCN(c2cccc4cccc(Cl)c24)C3)CC1CC#N` (centres undefined), for which the viability, T/C (compound alone 10 µM) was 35.8% and 2.73%.
Turning to `CN1CCN(c2cc(C(=O)Nc3cc4cc(-c5cnn(C)c5)ccc4cn3)ccn2)CC1`, the viability, T/C is, setting by setting: (compound alone 0.0316 µM) 85.7, 98.6, 110, 90.5, 94.9, 97.1, 98.5, 103, 83.2, 100, 107%; (compound alone 0.1 µM) 80.5, 79.2, 71.4, 83, 80.7, 84.9, 71.1, 87.7, 79.4, 81.2, 98.2%.

Source of the values: PubChem BioAssay AID2060625 (Molecular Pharmacology Branch, DTP, NCI, 2025).
